# Test results taken from the supplement of paper PMC8728848.
# This is one part of the list.
# B1: Als3-N (Candida albicans) (protein)
# chain: KTITGVFNSFNSLTWSNAATYNYKGPGTPTWNAVLGWSLDGTSASPGDTFTLNMPCVFKFTTSQTSVDLTAHGVKYATCQFQAGEEFMTFSTLTCTVSNTLTPSIKALGTVTLPLAFNVGGTGSSVDLEDSKCFTAGTNTVTFNDGGKKISINVDFERSNVDPKGYLTDSRVIPSLNKVSTLFVAPQCANGYTSGTMGFANTYGDVQIDCSNIHVGITKGLNDWNYPVSSESFSYTKTCSSNGIFITYKNVPAGYRPFVDAYISATDVNSYTLSYANEYTCAGGYWQRAPFTLRWTGYRNSDAGSNGIVIVATTRTVTDSTTAVTTLPFDPNRDKTKTIEILKPIPTTTITTSYVGVTTSYLTKTAPIGETATVIVDIPYHTTTTVTSKWTGTITSTTTHTNPTDSIDTVIVQVP
# Assays:
# Assay in all cases: glycan array binding signal (z-score within array); higher = stronger binding
# Conditions in all cases: glycan notation: IUPAC condensed, linker removed
# [1] = molecular target: Neu5Ac(a2-3)Gal(b1-4)GlcNAc(b1-3)[Neu5Ac(a2-3)Gal(b1-4)GlcNAc(b1-6)]GalNAc
# How it was run: (§1)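 Negative Z-scores can be read as non-binding. The Z-score is calculated within each array and then averaged across arrays of one protein sequence at different concentrations or buffers and across linkers. Arrays, 3228 in all, were curated from the Consortium for Functional Glycomics database and kept only where the protein sequence was available.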
# [2] = molecular target: Neu5Ac(a2-3)Gal(b1-4)GlcNAc(b1-6)GalNAc
# How it was run: as §1
# [3] = molecular target: Neu5Ac(a2-3)Gal(b1-4)GlcNAc(b1-6)[Gal(b1-3)]GalNAc
# How it was run: as §1
# [4] = molecular target: Neu5Ac(a2-3)Gal(b1-4)GlcNAc(b1-6)[Neu5Ac(a2-3)Gal(b1-3)]GalNAc
# How it was run: as §1
# [5] = molecular target: Neu5Ac(a2-3)Gal(b1-4)GlcNAc6S
# How it was run: as §1
# [6] = molecular target: Neu5Ac(a2-3)Gal(b1-4)[Fuc(a1-3)]GlcNAc
# How it was run: as §1
# [7] = molecular target: Neu5Ac(a2-3)Gal(b1-4)[Fuc(a1-3)]GlcNAc(b1-2)Man
# How it was run: as §1
# [8] = molecular target: Neu5Ac(a2-3)Gal(b1-4)[Fuc(a1-3)]GlcNAc(b1-3)Gal
# How it was run: as §1
# [9] = molecular target: Neu5Ac(a2-3)Gal(b1-4)[Fuc(a1-3)]GlcNAc(b1-3)Gal(b1-4)GlcNAc
# How it was run: as §1
# [10] = molecular target: Neu5Ac(a2-3)Gal(b1-4)[Fuc(a1-3)]GlcNAc(b1-3)Gal(b1-4)[Fuc(a1-3)]GlcNAc(b1-3)Gal(b1-4)[Fuc(a1-3)]GlcNAc
# How it was run: as §1
# [11] = molecular target: Neu5Ac(a2-3)Gal(b1-4)[Fuc(a1-3)]GlcNAc(b1-3)GalNAc
# How it was run: as §1
# [12] = molecular target: Neu5Ac(a2-3)Gal(b1-4)[Fuc(a1-3)]GlcNAc(b1-6)[Gal(b1-3)]GalNAc
# How it was run: as §1
# [13] = molecular target: Neu5Ac(a2-3)Gal(b1-4)[Fuc(a1-3)]GlcNAc(b1-6)[Neu5Ac(a2-3)Gal(b1-3)]GalNAc
# How it was run: as §1
# [14] = molecular target: Neu5Ac(a2-3)Gal(b1-4)[Fuc(a1-3)]GlcNAc6S
# How it was run: as §1
# [15] = molecular target: Neu5Ac(a2-3)Gal6S(b1-4)GlcNAc
# How it was run: as §1
# [16] = molecular target: Neu5Ac(a2-3)Gal6S(b1-4)[Fuc(a1-3)]GlcNAc
# How it was run: as §1
# Neu5Ac(a2-3)GalNAc = molecular target: Neu5Ac(a2-3)GalNAc
# How it was run: as §1
# [17] = molecular target: Neu5Ac(a2-3)GalNAc(b1-4)GlcNAc
# How it was run: as §1
# [18] = molecular target: Neu5Ac(a2-3)[GalNAc(b1-4)]Gal(b1-4)Glc
# How it was run: as §1
# [19] = molecular target: Neu5Ac(a2-3)[GalNAc(b1-4)]Gal(b1-4)GlcNAc
# How it was run: as §1
# [20] = molecular target: Neu5Ac(a2-3)[GalNAc(b1-4)]Gal(b1-4)GlcNAc(b1-3)GalNAc
# How it was run: as §1
# [21] = molecular target: Neu5Ac(a2-3)[Neu5Ac(a2-6)]GalNAc
# How it was run: as §1
# Neu5Ac(a2-6)Gal = molecular target: Neu5Ac(a2-6)Gal
# How it was run: as §1
# [22] = molecular target: Neu5Ac(a2-6)Gal(b1-3)GlcNAc(b1-3)[Gal(b1-4)GlcNAc(b1-6)]Gal(b1-4)Glc
# How it was run: as §1
# Neu5Ac(a2-6)Gal(b1-4)Glc = molecular target: Neu5Ac(a2-6)Gal(b1-4)Glc
# How it was run: as §1
# [23] = molecular target: Neu5Ac(a2-6)Gal(b1-4)GlcNAc
# How it was run: as §1
# [24] = molecular target: Neu5Ac(a2-6)Gal(b1-4)GlcNAc(b1-2)Man
# How it was run: as §1
# [25] = molecular target: Neu5Ac(a2-6)Gal(b1-4)GlcNAc(b1-2)Man(a1-3)Man(b1-4)GlcNAc(b1-4)GlcNAc
# How it was run: as §1
# [26] = molecular target: Neu5Ac(a2-6)Gal(b1-4)GlcNAc(b1-2)Man(a1-3)[Gal(b1-4)GlcNAc(b1-2)Man(a1-6)]Man(b1-4)GlcNAc(b1-4)GlcNAc
# How it was run: as §1
# [27] = molecular target: Neu5Ac(a2-6)Gal(b1-4)GlcNAc(b1-2)Man(a1-3)[GlcNAc(b1-2)Man(a1-6)]Man(b1-4)GlcNAc(b1-4)GlcNAc
# How it was run: as §1
# [28] = molecular target: Neu5Ac(a2-6)Gal(b1-4)GlcNAc(b1-2)Man(a1-3)[GlcNAc(b1-4)][Neu5Ac(a2-6)Gal(b1-4)GlcNAc(b1-2)Man(a1-6)]Man(b1-4)GlcNAc(b1-4)GlcNAc
# How it was run: as §1
# [29] = molecular target: Neu5Ac(a2-6)Gal(b1-4)GlcNAc(b1-2)Man(a1-3)[Man(a1-6)]Man(b1-4)GlcNAc(b1-4)GlcNAc
# How it was run: as §1
# [30] = molecular target: Neu5Ac(a2-6)Gal(b1-4)GlcNAc(b1-2)Man(a1-3)[Neu5Ac(a2-3)Gal(b1-4)GlcNAc(b1-2)Man(a1-6)]Man(b1-4)GlcNAc(b1-4)GlcNAc
# How it was run: as §1
# [31] = molecular target: Neu5Ac(a2-6)Gal(b1-4)GlcNAc(b1-2)Man(a1-3)[Neu5Ac(a2-6)Gal(b1-4)GlcNAc(b1-2)Man(a1-6)]Man(b1-4)GlcNAc(b1-4)GlcNAc
# How it was run: as §1
# [32] = molecular target: Neu5Ac(a2-6)Gal(b1-4)GlcNAc(b1-2)Man(a1-3)[Neu5Ac(a2-6)Gal(b1-4)GlcNAc(b1-2)Man(a1-6)]Man(b1-4)GlcNAc(b1-4)[Fuc(a1-6)]GlcNAc
# How it was run: as §1
# [33] = molecular target: Neu5Ac(a2-6)Gal(b1-4)GlcNAc(b1-2)Man(a1-6)Man(b1-4)GlcNAc(b1-4)GlcNAc
# How it was run: as §1
# [34] = molecular target: Neu5Ac(a2-6)Gal(b1-4)GlcNAc(b1-2)Man(a1-6)[Gal(b1-4)GlcNAc(b1-2)Man(a1-3)]Man(b1-4)GlcNAc(b1-4)GlcNAc
# How it was run: as §1
# [35] = molecular target: Neu5Ac(a2-6)Gal(b1-4)GlcNAc(b1-2)Man(a1-6)[GlcNAc(b1-2)Man(a1-3)]Man(b1-4)GlcNAc(b1-4)GlcNAc
# How it was run: as §1
# [36] = molecular target: Neu5Ac(a2-6)Gal(b1-4)GlcNAc(b1-2)Man(a1-6)[Man(a1-3)]Man(b1-4)GlcNAc(b1-4)GlcNAc
# How it was run: as §1
# [37] = molecular target: Neu5Ac(a2-6)Gal(b1-4)GlcNAc(b1-2)[Neu5Ac(a2-6)Gal(b1-4)GlcNAc(b1-4)]Man(a1-3)[GlcNAc(b1-4)][Neu5Ac(a2-6)Gal(b1-4)GlcNAc(b1-2)[Neu5Ac(a2-6)Gal(b1-4)GlcNAc(b1-6)]Man(a1-6)]Man(b1-4)GlcNAc(b1-4)GlcNAc
# How it was run: as §1
# [38] = molecular target: Neu5Ac(a2-6)Gal(b1-4)GlcNAc(b1-2)[Neu5Ac(a2-6)Gal(b1-4)GlcNAc(b1-4)]Man(a1-3)[GlcNAc(b1-4)][Neu5Ac(a2-6)Gal(b1-4)GlcNAc(b1-4)Man(a1-6)]Man(b1-4)GlcNAc(b1-4)GlcNAc
# How it was run: as §1
# [39] = molecular target: Neu5Ac(a2-6)Gal(b1-4)GlcNAc(b1-2)[Neu5Ac(a2-6)Gal(b1-4)GlcNAc(b1-6)]Man(a1-6)[Neu5Ac(a2-6)Gal(b1-4)GlcNAc(b1-2)Man(a1-3)][GlcNAc(b1-4)]Man(b1-4)GlcNAc(b1-4)GlcNAc
# How it was run: as §1
# [40] = molecular target: Neu5Ac(a2-6)Gal(b1-4)GlcNAc(b1-3)Gal(b1-3)GlcNAc
# How it was run: as §1
# [41] = molecular target: Neu5Ac(a2-6)Gal(b1-4)GlcNAc(b1-3)Gal(b1-4)GlcNAc
# How it was run: as §1
# [42] = molecular target: Neu5Ac(a2-6)Gal(b1-4)GlcNAc(b1-3)Gal(b1-4)GlcNAc(b1-2)Man(a1-3)[Neu5Ac(a2-6)Gal(b1-4)GlcNAc(b1-3)Gal(b1-4)GlcNAc(b1-2)Man(a1-6)]GalNAc
# How it was run: as §1
binder,measurement,setting,value
B1,glycan array binding signal (z-score),[1],-0.204
same,glycan array binding signal (z-score),[2],-0.202
same,glycan array binding signal (z-score),[3],-0.233
same,glycan array binding signal (z-score),[4],-0.23
same,glycan array binding signal (z-score),[5],-0.336
same,glycan array binding signal (z-score),[6],-0.182
same,glycan array binding signal (z-score),[7],0.036
same,glycan array binding signal (z-score),[8],0.314
same,glycan array binding signal (z-score),[9],0.029
same,glycan array binding signal (z-score),[10],-0.16
same,glycan array binding signal (z-score),[11],0.382
same,glycan array binding signal (z-score),[12],1.2
same,glycan array binding signal (z-score),[13],-0.003
same,glycan array binding signal (z-score),[14],-0.27
same,glycan array binding signal (z-score),[15],-0.254
same,glycan array binding signal (z-score),[16],-0.22
same,glycan array binding signal (z-score),Neu5Ac(a2-3)GalNAc,-0.215
same,glycan array binding signal (z-score),[17],-0.174
same,glycan array binding signal (z-score),[18],-0.193
same,glycan array binding signal (z-score),[19],2.21
same,glycan array binding signal (z-score),[20],0.502
same,glycan array binding signal (z-score),[21],-0.049
same,glycan array binding signal (z-score),Neu5Ac(a2-6)Gal,-0.171
same,glycan array binding signal (z-score),[22],-0.315
same,glycan array binding signal (z-score),Neu5Ac(a2-6)Gal(b1-4)Glc,-0.187
same,glycan array binding signal (z-score),[23],-0.164
same,glycan array binding signal (z-score),[24],0.001
same,glycan array binding signal (z-score),[25],-0.092
same,glycan array binding signal (z-score),[26],-0.067
same,glycan array binding signal (z-score),[27],-0.327
same,glycan array binding signal (z-score),[28],-0.248
same,glycan array binding signal (z-score),[29],-0.114
same,glycan array binding signal (z-score),[30],-0.278
same,glycan array binding signal (z-score),[31],-0.243
same,glycan array binding signal (z-score),[32],-0.102
same,glycan array binding signal (z-score),[33],-0.341
same,glycan array binding signal (z-score),[34],-0.298
same,glycan array binding signal (z-score),[35],-0.168
same,glycan array binding signal (z-score),[36],-0.309
same,glycan array binding signal (z-score),[37],-0.151
same,glycan array binding signal (z-score),[38],-0.082
same,glycan array binding signal (z-score),[39],-0.293
same,glycan array binding signal (z-score),[40],-0.283
same,glycan array binding signal (z-score),[41],-0.287
same,glycan array binding signal (z-score),[42],0.388
